Some of the results follow.
test system: HSkMC (human skeletal muscle cells); assay: cytotoxicity call (relative viability < 0.9); conditions: 10 µM

Row | SMILES | cytotoxicity call
1 | C[C@H]1CN([C@@H](C)CO)C(=O)Cc2cc(NS(=O)(=O)c3cn(C)cn3)ccc2O[C@H]1CN(C)C(=O)Nc1ccc2c(c1)OCO2 | inactive
2 | C[C@@H]1CN([C@@H](C)CO)S(=O)(=O)c2ccc(C#Cc3ccncc3)cc2O[C@H]1CN(C)C(=O)C1CCC1 | inactive
3 | Cc1ccc(S(=O)(=O)N[C@@H]2CC[C@@H](CC(=O)NCc3ccc(Cl)c(Cl)c3)O[C@H]2CO)cc1 | inactive
4 | COc1cccc(CNC(=O)C[C@H]2C=C[C@H](NC(=O)C3CCOCC3)[C@H](CO)O2)c1 | inactive
5 | CCOC(=O)Nc1nc2ccccc2[nH]1 | inactive
6 | Cc1ccc(S(=O)(=O)Nc2ccc3c(c2)C(=O)N([C@H](C)CO)C[C@@H](C)[C@@H](CN(C)Cc2ccc(C(F)(F)F)cc2)OCCCC[C@@H](C)O3)cc1 | inactive
7 | C[C@H]1CN([C@@H](C)CO)C(=O)c2cccc(NS(=O)(=O)c3cccs3)c2O[C@@H]1CN(C)Cc1ccc(-c2ccccc2)cc1 | inactive
8 | COc1ccc(S(=O)(=O)N(C)C[C@H]2Oc3ccc(NS(=O)(=O)c4ccccc4)cc3CC(=O)N([C@H](C)CO)C[C@@H]2C)cc1 | inactive
9 | C[C@@H]1CN([C@H](C)CO)C(=O)Cc2cc(NS(C)(=O)=O)ccc2O[C@H]1CN(C)C(=O)Nc1ccc(C(F)(F)F)cc1 | inactive
10 | COc1ccc(S(=O)(=O)Nc2ccc3c(c2)C(=O)N([C@H](C)CO)C[C@@H](C)[C@H](CN(C)S(=O)(=O)c2cn(C)cn2)O3)cc1 | inactive
11 | C[C@H](CO)N1C[C@H](C)[C@H](CN(C)CC2CC2)Oc2ccc(NC(=O)Cn3cnnn3)cc2CC1=O | inactive
12 | CCCN(C)C[C@H]1OCCCC[C@H](C)Oc2ccc(NC(=O)NC3CCCCC3)cc2C(=O)N([C@@H](C)CO)C[C@H]1C | inactive
